According to the supplement of paper PMC7826260:
The list shows a part of the results. The data describe in vitro nicking of single-stranded DNA by Rep domains for 1 h at 37 °C with 3 µM enzyme; only the middle of the 90-letter strands is printed. The score is log2 (uncut reads / reads without enzyme); more negative means more cut, near 0 not cut, and no call is made. Reads are scaled to the total, so uncut sequences can rise above 0 when many others are cut.

Experiments:
Test in all cases: uncleaved DNA left, log2 of reads against the no-enzyme library (log2 ratio); higher = less cleavage (more negative = more Rep cleavage of the k-mer); sequences stand for … in CTCGTCCG…ACCGGAGA
[1] = tested on: T1, Rep nickase domain of Muscovy duck circovirus
T1 sequence (residues 1-111 of Rep, tag left off): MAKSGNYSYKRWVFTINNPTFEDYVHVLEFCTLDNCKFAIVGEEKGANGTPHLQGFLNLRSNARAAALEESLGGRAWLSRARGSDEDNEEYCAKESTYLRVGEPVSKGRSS
Protocol: (§1)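 A pool of 90-nt single-stranded DNAs with seven random bases just before the constant AC of the nick site (name = the seven bases) was cut by 3 µM recombinant His6-SUMO-tagged Rep nickase domain (300 nM DNA, 50 mM HEPES pH 8.0, 50 mM NaCl, 1 mM MnCl2, 1 h, 37 °C, three replicates). Uncut DNA was amplified and sequenced.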

[2] = tested on: T2, Rep nickase domain of banana bunchy top virus
T2 sequence (residues 1-94 of Rep, tag left off): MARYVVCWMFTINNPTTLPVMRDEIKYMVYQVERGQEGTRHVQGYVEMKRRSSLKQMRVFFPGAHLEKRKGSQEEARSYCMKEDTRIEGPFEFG
Protocol: as §1

[3] = tested on: T3, Rep nickase domain of cabbage leaf curl virus
T3 sequence (residues 1-116 of Rep, tag left off): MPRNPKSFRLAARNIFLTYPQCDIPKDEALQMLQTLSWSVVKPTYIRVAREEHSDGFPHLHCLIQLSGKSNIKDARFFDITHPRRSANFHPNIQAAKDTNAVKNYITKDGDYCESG
Protocol: as §1

[4] = tested on: T4, Rep nickase domain of chickpea chlorotic dwarf virus
T4 sequence (residues 1-124 of Rep, tag left off): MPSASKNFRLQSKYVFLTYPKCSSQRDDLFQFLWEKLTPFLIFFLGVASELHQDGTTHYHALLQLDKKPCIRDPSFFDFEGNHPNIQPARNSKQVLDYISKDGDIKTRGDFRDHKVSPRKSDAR
Protocol: as §1

[5] = tested on: T5, Rep nickase domain of faba bean necrotic yellows virus
T5 sequence (residues 1-98 of Rep, tag left off): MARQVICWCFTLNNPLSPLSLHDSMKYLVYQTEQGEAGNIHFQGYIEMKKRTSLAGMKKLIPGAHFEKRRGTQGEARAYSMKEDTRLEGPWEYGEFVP
Protocol: as §1

[6] = tested on: T6, Rep nickase domain of maize striate mosaic virus
T6 sequence (residues 1-117 of Rep, tag left off): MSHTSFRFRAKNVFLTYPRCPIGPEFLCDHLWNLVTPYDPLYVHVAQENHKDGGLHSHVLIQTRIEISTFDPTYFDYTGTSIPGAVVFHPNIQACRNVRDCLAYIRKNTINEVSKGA
Protocol: as §1

[7] = tested on: T7, Rep nickase domain of porcine circovirus 2
T7 sequence (residues 2-116 of Rep, tag left off): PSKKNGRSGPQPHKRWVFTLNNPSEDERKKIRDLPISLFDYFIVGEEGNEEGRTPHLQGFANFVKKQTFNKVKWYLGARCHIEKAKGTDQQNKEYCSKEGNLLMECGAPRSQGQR
Protocol: as §1

[8] = tested on: T8, Rep nickase domain of tomato golden mosaic virus
T8 sequence (residues 1-124 of Rep, tag left off): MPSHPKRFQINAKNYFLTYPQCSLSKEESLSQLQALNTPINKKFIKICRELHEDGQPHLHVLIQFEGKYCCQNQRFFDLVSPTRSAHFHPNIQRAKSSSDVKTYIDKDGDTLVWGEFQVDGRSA
Protocol: as §1

[9] = tested on: T9, Rep nickase domain of tomato yellow leaf curl virus
T9 sequence (residues 1-136 of Rep, tag left off): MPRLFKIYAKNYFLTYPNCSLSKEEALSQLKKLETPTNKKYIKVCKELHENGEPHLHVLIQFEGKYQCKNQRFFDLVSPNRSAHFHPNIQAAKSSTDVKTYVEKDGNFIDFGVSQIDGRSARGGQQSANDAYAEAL
Protocol: as §1

[10] = tested on: T10, Rep nickase domain of wheat dwarf virus
T10 sequence (residues 1-137 of Rep, tag left off): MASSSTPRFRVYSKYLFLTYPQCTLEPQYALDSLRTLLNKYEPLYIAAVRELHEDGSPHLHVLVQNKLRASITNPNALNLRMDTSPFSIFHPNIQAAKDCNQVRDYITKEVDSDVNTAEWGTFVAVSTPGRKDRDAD
Protocol: as §1

Sequence | uncleaved DNA left (log2) [1] | uncleaved DNA left (log2) [2] | uncleaved DNA left (log2) [3] | uncleaved DNA left (log2) [4] | uncleaved DNA left (log2) [5] | uncleaved DNA left (log2) [6] | uncleaved DNA left (log2) [7] | uncleaved DNA left (log2) [8] | uncleaved DNA left (log2) [9] | uncleaved DNA left (log2) [10]
TAGAAGA | 0.149 | 0.0729 | -0.00355 | -0.414 | 0.0969 | -0.931 | -0.164 | 0.104 | 0.0559 | 0.122
TCTATCA | -0.039 | 0.099 | 0.509 | 0.243 | -0.0311 | 0.812 | 0.0613 | -0.0229 | 0.124 | 0.205
TGCTCGC | 0.143 | 0.165 | 0.238 | 0.471 | 0.0764 | 0.664 | 0.063 | 0.165 | 0.136 | 0.113
ACGCGAT | -0.0905 | -0.126 | -0.536 | -0.378 | 0.146 | -0.79 | 0.143 | -0.137 | -0.104 | -0.2
AGAGACC | -0.0364 | -0.00698 | 0.0529 | 0.808 | -0.0151 | 0.902 | 0.0975 | -0.00682 | 0.000328 | 0.0313
AGGATCC | 0.0929 | 0.0622 | 0.123 | 0.618 | -0.0298 | 0.653 | 0.0672 | -0.0357 | 0.0184 | 0.11
GAACGCT | 0.158 | 0.0304 | -0.182 | -1.62 | 0.0678 | -0.182 | -0.0199 | 0.0417 | 0.059 | -0.0515
TTAAGTT | -0.0262 | -0.124 | -3.12 | -3.34 | -0.0754 | -1.41 | -0.324 | -0.627 | -0.0818 | -1.67
GGTACCT | -0.0778 | 0.0562 | 0.493 | 1.19 | -0.149 | 1.87 | -0.0552 | -0.099 | -0.0541 | 0.124
ATGGGGA | 0.0938 | -0.122 | 0.413 | 0.829 | 0.0685 | 1 | 0.203 | 0.0376 | -0.0996 | -0.113
CTGCCTG | -0.143 | 0.000343 | -0.0913 | 0.0698 | 0.0748 | -0.0329 | -0.201 | 0.0576 | 0.149 | 0.0254
TATTTAT | -3.33 | -2.93 | -0.018 | -0.996 | 0.0265 | 1.05 | -3.73 | 0.074 | 0.00579 | 0.0137
TGATATA | -0.00097 | 0.0264 | 0.14 | -0.83 | 0.0773 | 0.165 | -0.0567 | 0.0797 | 0.148 | 0.0454
GTATGGC | 0.0324 | 0.0122 | 0.112 | 0.561 | 0.00549 | 0.0219 | 0.00124 | 0.079 | 0.0733 | 0.0304
TCAATGG | 0.0802 | -0.025 | 0.213 | 0.609 | -0.0137 | 0.141 | 0.12 | 0.117 | -0.0557 | 0.0303
GACCCTC | -0.0212 | 0.0593 | 0.699 | 1.18 | -0.00233 | 1.52 | -0.0699 | 0.0587 | 0.0775 | 0.0472
GTAGCTG | 0.105 | 0.0264 | 0.372 | 1.44 | 0.103 | 1.73 | 0.176 | 0.117 | -0.126 | 0.141
GTGACGC | -0.178 | 0.0761 | 0.532 | 1.53 | 0.0181 | 1.96 | 0.113 | 0.0932 | 0.0578 | 0.0121
CTATCTC | -0.118 | -0.0931 | -0.371 | -0.239 | -0.0559 | -0.315 | -0.097 | -0.204 | -0.0873 | -0.202
GTCCAGG | 0.0194 | -0.0435 | 0.26 | 0.994 | -0.0465 | 1.65 | -0.00256 | 0.104 | -0.043 | 0.0684
CCATTGC | -0.0639 | -0.142 | -0.0552 | 1.34 | -0.00941 | 1.05 | 0.078 | -0.192 | 0.0444 | -0.121
CAGTCAT | -0.059 | -0.982 | 0.194 | -0.536 | -0.229 | 0.358 | -3.89 | 0.0509 | 0.221 | 0.144
TTTGGCC | 0.015 | 0.0169 | 0.0161 | -0.0631 | 0.0142 | -0.684 | 0.057 | 0.0704 | 0.0137 | -0.105
CTACTAT | 0.214 | 0.0106 | -0.0423 | -2.03 | 0.049 | -0.343 | -0.142 | 0.031 | 0.132 | 0.0529
GGTTGAA | 0.144 | -0.0136 | 0.43 | 1.04 | 0.0876 | 1.65 | 0.177 | 0.0599 | 0.131 | 0.178
GGAGTTG | 0.149 | 0.221 | 0.394 | 0.846 | 0.28 | 0.998 | 0.313 | 0.175 | 0.132 | 0.189
AGGAGCG | 0.0559 | 0.00796 | -0.764 | -0.161 | 0.156 | -0.911 | 0.258 | 0.068 | 0.0795 | -0.0531
TCTAAGC | 0.0628 | 0.0719 | -0.0161 | -0.238 | -0.00919 | -0.858 | 0.155 | -0.0171 | -0.0398 | -0.00177
TGTCTAC | 0.0733 | 0.0525 | 0.392 | 0.185 | 0.0497 | 1.51 | 0.113 | 0.148 | 0.0251 | 0.0998
